# Data reported in the supplement of paper PMC3334620.
# The full ranking holds about 33,000 sequences; the median of “E-score (-0.5 to 0.5)” is about -0.013, and the highest 2% start at about 0.3. Some of the results follow.
# Molecular target: T1, Msn1 (UniProt P22148)
# T1 sequence: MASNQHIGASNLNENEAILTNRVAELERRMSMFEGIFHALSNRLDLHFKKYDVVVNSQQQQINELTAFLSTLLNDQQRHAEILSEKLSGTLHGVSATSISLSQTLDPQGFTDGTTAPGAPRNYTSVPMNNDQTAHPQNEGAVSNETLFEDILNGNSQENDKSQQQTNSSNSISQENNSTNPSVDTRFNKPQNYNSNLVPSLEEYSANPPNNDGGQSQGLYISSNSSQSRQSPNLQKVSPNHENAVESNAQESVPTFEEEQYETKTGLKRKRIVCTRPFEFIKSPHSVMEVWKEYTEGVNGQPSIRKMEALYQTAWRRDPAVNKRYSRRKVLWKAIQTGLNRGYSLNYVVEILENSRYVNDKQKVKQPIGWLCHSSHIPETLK
# Experiment: PBM E-score (8-mer binding enrichment) (E-score (-0.5 to 0.5)); higher = stronger / more preferred TF binding; most listed sequences are background and not binding sites
# Details: protein concentration: 200 nM; construct: GST-full length
# Outline: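 Yeast transcription factors, full-length or as DNA-binding domains, were expressed with a GST tag using PURExpress in vitro transcription/translation. At about 100-200 nM they were applied to universal all-10-mer Agilent arrays, double-stranded by primer extension on fresh or once-stripped slides. Fluorescent anti-GST detected bound protein, and masliner normalised the scans. E-scores for ungapped eight-base words, pooled with reverse complements, came from the Universal PBM Analysis Suite.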
row,Sequence,PBM E-score
1,ATGGCTTA,0.0444
2,ACCTATCG,0.0547
3,TACTTTAA,0.0518
4,ACAAGGGG,-0.00205
5,AGGGCTTC,-0.126
6,GGCCGATA,0.169
7,ATCAAGAT,-0.00683
8,GCCATTAC,-0.00577
9,CAGGCCCC,-0.18
10,CCAATATA,-0.096
11,CATTCCGG,0.0569
12,AGCATAGG,-0.258
13,ACACTAGA,-0.0495
14,CGGATATC,0.0424
15,ATAGTCGA,0.141
16,TCTATAAA,0.175
17,CCCATGCA,-0.151
18,ACAACTAT,0.12
19,CATCTTAC,-0.0364
20,ATTGATGA,0.145
21,CGGAACCA,0.114
22,CGGCCCAA,-0.202
23,ACCGCGAG,0.00685
24,TTAGTAAA,0.142
25,GACTAGCC,-0.0281

row,Sequence,PBM E-score
1,AAGTAGGC,-0.101
2,AGATGCCG,-0.0595
3,AGGGGATG,-0.0972
4,ACGATGGA,-0.0467
5,ACTACAGC,-0.26
6,AAATATAA,0.272
7,CCACGAGG,0.0402
8,CTGTCCAC,0.184
9,ACAATTTG,0.165
10,GGTGGGGA,0.0146
11,AAACTGTA,0.0343
12,CACTAAAC,0.024
13,AAACGGCG,0.104
14,AGTGTAAT,-0.0103
15,CCGGGCGA,-0.0558
16,GCATAATA,0.236
17,AGGACGGA,0.131
18,AAGCAGGG,-0.119
19,ATGACACG,0.214
20,AAACCGAG,0.0108
21,AGCGTCGC,-0.146
22,AGGGCAAA,0.00167
23,ATGTGTTC,-0.0705
24,GCGCAAAC,0.00686
25,GCTGCAAC,-0.162

row,Sequence,PBM E-score
1,AGCGAGGA,-0.124
2,CCGGGCGC,-0.213
3,CATGAAAG,0.0334
4,CATACGGA,0.158
5,CACATGAG,-0.101
6,ATGCCCGC,-0.121
7,TAGACGCA,0.0307
8,ACTTAAAC,0.115
9,CAACTACC,-0.00232
10,CGAGCGCA,0.14
11,GCCAGCAC,-0.0728
12,GTTAGGAA,-0.0822
13,TCCGGAAA,0.248
14,TCGACGAA,0.118
15,CGCACCCG,-0.0496
16,GAGCGTGC,-0.0256
17,AGCAGATC,0.0261
18,ATATTTGC,0.111
19,ATCGCAGG,-0.112
20,GGATTCTA,0.102
21,ATTGAGAC,0.235
22,CACTTTAG,-0.143
23,GGATGTAA,0.066
24,ATCTGTTC,-0.117
25,CTCGTAGC,-0.0948

row,Sequence,PBM E-score
1,AGACGCAA,0.0196
2,AAATAACG,0.104
3,GCAGAGGC,-0.241
4,CGGGCGAG,0.0181
5,ATCGCCTG,0.0274
6,GGGCAGAA,0.0819
7,TGTGCAAA,0.0609
8,CATATCTA,0.157
9,CCGAAATC,0.132
10,CGTCTTAC,-0.095
11,CCCTTACG,-0.0794
12,AGCGGGTA,-0.0997
13,GGCTCAAC,-0.206
14,TGTTGGAA,0.198
15,CATGCCCC,-0.119
16,CGTCTCCC,-0.0955
17,AACACGCA,-0.0633
18,AGTACAAT,0.29
19,GCATGCGC,0.0395
20,AGACTTGA,0.0271
21,GACGGTGA,-0.0612
22,CCATTCGA,-0.0308
23,CGTAGAGC,0.0354
24,GCAACCAA,0.0319
25,CTTCCCAC,-0.118

row,Sequence,PBM E-score
1,ATCGACGG,-0.0525
2,TCAACGCA,0.106
3,GACCCTCC,-0.0933
4,AGAACTAA,0.0859
5,GGAACACC,0.019
6,GGCTCTAC,-0.154
7,TAAGACAA,0.395
8,AAGATGTA,0.037
9,CATAATTA,0.149
10,CTCCGAGC,0.0263
11,ACGGGTTC,-0.0606
12,ACCCTAAT,-0.19
13,CGGATCAA,0.0427
14,CCGCCGCA,-0.138
15,CGTCCACA,0.188
16,CTCTCATC,-0.158
17,CCCGGATA,-0.023
18,GGCAAATA,0.0262
19,CATCGGGA,0.192
20,ACACCGAC,0.0822
21,ATGATTTA,0.126
22,GTCCCATA,0.199
23,CAGGAGGG,-0.206
24,CGGACACC,0.112
25,TAGTCTGA,0.0387

row,Sequence,PBM E-score
1,AGCGGAGC,-0.134
2,GTCCGACA,0.322
3,GGGCGTTA,0.0501
4,TATCACGA,-0.00709
5,ATATAAGG,0.151
6,CCATCAGG,-0.174
7,ACAAACCT,0.1
8,AATTTCAA,0.131
9,GTAAGAAC,0.106
10,CTCGTAAC,-0.0299
11,GTATGCTA,-0.168
12,CCGCTAGG,-0.213
13,CACCACAA,0.085
14,GTAATATA,0.191
15,AACCTTCT,-0.205
16,CGGGCACG,-0.161
17,ACTGGGCA,-0.224
18,ACGTCGCA,-0.00026
19,GCGCAATA,-0.0411
20,ATCAGGGG,-0.308
21,GGCACATA,0.0901
22,AGAAGGGC,-0.101
23,GTGTCCCA,0.439
24,AGGTCGAG,-0.177
25,GGAGGCAA,-0.243

row,Sequence,PBM E-score
1,CAGCGAAC,-0.112
2,CACACACG,0.0525
3,AGAGATAA,0.0317
4,AGTTTTTC,0.0155
5,CGTGGACC,-0.0578
6,AACGCAGA,0.00295
7,ATCGGCTG,0.0357
8,GGGCTGAA,-0.0218
9,ATCGATTC,-0.0167
10,CGTTGCCA,0.0653
11,CCCTTTTA,-0.00272
12,CGGACTAG,0.0298
13,GCCATACC,-0.187
14,TCGTCAGA,-0.0483
15,GGCGAGGA,-0.0575
16,AGGATAGG,-0.0752
17,GAGTTATA,-0.0595
18,GCGGCAAC,-0.145
19,ACATGCGA,0.0948
20,GCTATCCA,-0.146
21,GCGAGAGA,-0.11
22,CGTTAGAG,-0.0334
23,ATGTGGTA,0.0238
24,GAGGACAC,0.398
